From the supplement of paper PMC12355420
Where a name gives a salt, the structure may show the parent alone. The list shows a part of the results. Rule as the data show it: active = 0.5 or less and inactive = the rest. Single values are uncertain, as repeats are few or missing.

Legend:
Settings in all cases: 50 µM; 24 h
[1] = tested on: HeLa VPS33A reporter cells; experiment: relative cell viability (CellMask signal) vs DMSO (fraction of DMSO); higher = less cytotoxic;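 also: primary screen of an FDA-approved drug library in HeLa reporter cells in 96-well format, CellMask signal normalized to DMSO-treated wells set as 1, under 0.5 deemed highly cytotoxic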
[2] = tested on: HeLa VPS33A R498W KI + HA-SDC1-FLAG; experiment: relative GAG core protein HA-SDC1 amount per cell number vs DMSO (fraction of DMSO); higher = more SDC1 (GAG core protein);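 also: HA-SDC1 level read out by In-Cell Western staining with an anti-HA antibody against the N-terminal tag, screening FDA-approved library drugs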
[3] = tested on: HeLa VPS33A KO + NLuc-VPS33A R498W; experiment: relative mutant VPS33A R498W amount (NanoLuc luminescence) vs DMSO (fraction of DMSO); HeLa model of a glycosaminoglycan (GAG) storage disease; KI is knock-in and KO knock-out; SDC1 is syndecan 1; higher = higher mutant VPS33A level;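 also: screen of an FDA-approved drug library, NanoLuc luminescence read after lysing the treated cells, taken as a measure of mutant VPS33A protein stability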

Structure (SMILES)	relative cell viability [1]	relative GAG core protein HA-SDC1 amount per cell number [2]	relative mutant VPS33A R498W amount [3]
O=C1N=C(O)NC1(c1ccccc1)c1ccccc1 [Phenytoin sodium]	1.03	inactive: 0.905	1.53
CC(C)(CO)[C@@H](O)C(=O)NCCCO [Dexpanthenol]	1.03	inactive: 0.847	1.37
O=C(O)[C@@H]1CCCN1 [L-Proline]	0.978	inactive: 0.984	1.03
CC(=O)OCC[N+](C)(C)C [Acetylcholine Chloride]	0.994	inactive: 1.44	1.19
O=C1c2cccc3c2[C@H](CCC3)CN1[C@@H]1CN2CCC1CC2 [Palonosetron HCl]	1.03	inactive: 0.893	0.601
CCN(CC)CCNC(=O)c1ccc(N)cc1 [Procainamide HCl]	1.07	inactive: 0.792	1.22
CC1(C)O[C@@H]2C[C@H]3[C@@H]4CCC5=CC(=O)CC[C@]5(C)[C@@]4(F)[C@@H](O)C[C@]3(C)[C@]2(C(=O)CCl)O1 [Halcinonide]	0.804	inactive: 1.23	1.23
CN(C/C=C/C#CC(C)(C)C)Cc1cccc2ccccc12 [Terbinafine HCl]	0.905	inactive: 0.538	0.575
NCCCCCC(=O)O [(6-)ε-Aminocaproic acid]	0.967	inactive: 0.994	1.13
CC(C)CN(C[C@@H](O)[C@H](Cc1ccccc1)NC(=O)O[C@H]1CCOC1)S(=O)(=O)c1ccc(N)cc1 [Amprenavir (agenerase)]	1.12	inactive: 1.01	0.898
O=c1c(-n2ccnn2)c[nH]n1-c1cc(N2CCOCC2)ncn1 [Molidustat (BAY85-3934)]	1.17	inactive: 0.757	1.44
CCOC(=O)CCC(=O)O[C@H]1[C@H](O[C@@H]2[C@@H](C)[C@H](O[C@H]3C[C@@](C)(OC)[C@@H](O)[C@H](C)O3)[C@@H](C)C(=O)O[C@H](CC)[C@@](C)(O)[C@H](O)[C@@H](C)C(=O)[C@H](C)C[C@@]2(C)O)O[C@H](C)C[C@@H]1N(C)C [Erythromycin Ethylsuccinate]	1.04	inactive: 0.72	1.13
C#C[C@]1(O)CC[C@H]2[C@@H]3CCc4cc(OC5CCCC5)ccc4[C@H]3CC[C@@]21C [Quinestrol]	0.915	inactive: 0.785	1.09
Nc1nc2c(ncn2[C@H]2C[C@H](O)[C@@H](CO)O2)c(=O)[nH]1 [2'-Deoxyguanosine]	0.982	inactive: 0.757	1.09
COc1ccc([C@@H]2OC[C@H]3[C@@H]2CO[C@@H]3c2ccc3c(c2)OCO3)cc1OC [Fargesin]	0.934	inactive: 0.667	0.699
CNC1(C)C2CCC(C2)C1(C)C (centres undefined) [Mecamylamine hydrochloride]	1.23	inactive: 0.767	1.13
CC1(C)S[C@@H]2[C@H](NC(=O)C(C(=O)O)c3ccccc3)C(=O)N2[C@H]1C(=O)O (some centres undefined) [Carbenicillin, Disodium Salt]	1.38	inactive: 1.27	0.996
OCCN1C[C@H](O)[C@@H](O)[C@H](O)[C@H]1CO [Miglitol]	0.972	inactive: 0.908	1.57
C[C@H]1[C@H](C)CC[C@]2(C(=O)O)CC[C@]3(C)C(=CC[C@@H]4[C@@]5(C)C[C@@H](O)[C@H](O)[C@@](C)(CO)[C@@H]5[C@H](O)C[C@]43C)[C@H]12 [Madecassic acid]	1.06	inactive: 0.572	1.4
O=NN(CCCl)C(=O)NCCCl [Carmustine]	0.963	inactive: 0.825	0.853
CCN[C@H]1C[C@H](C)S(=O)(=O)c2sc(S(N)(=O)=O)cc21 [Dorzolamide HCl]	1.07	inactive: 1.27	1.05
CC(C(=O)O)c1ccc2c(c1)CC(=O)c1ccccc1S2 (centres undefined) [Zaltoprofen]	0.997	inactive: 0.843	1.1
NCC(=O)NCC(=O)O [Glycylglycine]	1.04	inactive: 1.03	1.12
c1ccc(CN(CC2=NCCN2)c2ccccc2)cc1 [Antazoline HCl]	0.912	inactive: 0.783	0.943
CCCCN(CCCC)CC(O)c1cc(Cl)cc2c1-c1ccc(Cl)cc1/C2=C/c1ccc(Cl)cc1 (centres undefined) [Lumefantrine]	1.06	inactive: 0.854	1.25
Nc1nc(Cl)nc2c1ncn2[C@@H]1O[C@H](CO)[C@@H](O)[C@@H]1F [Clofarabine]	1.19	inactive: 1.17	1.05
O=C(O)CSCC(=O)NC1CCSC1=O (centres undefined) [Erdosteine]	1.02	inactive: 0.824	1.3

Structure (SMILES)	relative cell viability [1]	relative GAG core protein HA-SDC1 amount per cell number [2]	relative mutant VPS33A R498W amount [3]
CC[C@H](C)[C@@H]1NC(=O)[C@H](Cc2ccc(OC)cc2)NC(=O)CCCSC[C@@H](C(=O)N2CCC[C@H]2C(=O)N[C@@H](CC(C)C)C(=O)NCC(N)=O)NC(=O)[C@H](CC(N)=O)NC(=O)[C@H](CCC(N)=O)NC1=O [Carbetocin]	1.1	inactive: 0.934	1.25
CC(C)c1nc(N(C)S(C)(=O)=O)nc(-c2ccc(F)cc2)c1/C=C/[C@@H](O)C[C@@H](O)CC(=O)O [Rosuvastatin Calcium]	1.08	inactive: 0.675	2.38
CC(C)(O)CNc1nc(Nc2ccnc(C(F)(F)F)c2)nc(-c2cccc(C(F)(F)F)n2)n1 [AG-221 (Enasidenib)]	1.15	inactive: 0.88	1.46
CCCc1nn(C)c2c(=O)[nH]c(-c3cc(S(=O)(=O)N4CCN(C)CC4)ccc3OCC)nc12 [Sildenafil Citrate]	0.996	inactive: 0.948	0.852
NS(=O)(=O)c1cc(C2(O)NC(=O)c3ccccc32)ccc1Cl (centres undefined) [Chlortalidone]	0.997	inactive: 0.906	1.22
CC(C)(Oc1ccc(Cl)cc1)C(=O)O [Clofibric Acid]	1	inactive: 1.14	1.32
NC(=O)NC1NC(=O)NC1=O (centres undefined) [Allantoin]	0.969	inactive: 0.999	0.978
CC(C)(Sc1cc(C(C)(C)C)c(O)c(C(C)(C)C)c1)Sc1cc(C(C)(C)C)c(O)c(C(C)(C)C)c1 [Probucol]	1.02	inactive: 1.03	1.18
CC1(C)[C@H](C(=O)O)N2C(=O)C[C@H]2S1(=O)=O [Sulbactam sodium]		inactive: 1	1.1
COc1ccc(C(Cl)=C(c2ccc(OC)cc2)c2ccc(OC)cc2)cc1 [Chlorotrianisene]	1.01	inactive: 0.97	1.13
CN(C)c1cc(NC(=O)CNC(C)(C)C)c(O)c2c1C[C@H]1C[C@H]3[C@H](N(C)C)C(=O)C(C(N)=O)=C(O)[C@@]3(O)C(=O)C1=C2O [Tigecycline]	0.985	inactive: 1.04	1.26
C[C@H](CCC(=O)O)[C@H]1CC[C@H]2[C@@H]3C[C@H](O)[C@@H]4C[C@H](O)CC[C@]4(C)[C@H]3CC[C@]12C [Hyodeoxycholic acid]	1.09	inactive: 0.751	0.918
CCC(C)(C)C(=O)O[C@H]1C[C@@H](C)C=C2C=C[C@H](C)[C@H](CC[C@@H]3C[C@@H](O)CC(=O)O3)[C@H]21 [Simvastatin (Zocor)]		inactive: 0.578	2.35
CC(=O)N[C@@H](CS)C(=O)O [Acetylcysteine]	1.43	inactive: 1.13	2.97
O=C(c1ccccc1)c1ccc2n1CCC2C(=O)O (centres undefined) [Ketorolac tromethamine salt]	1.44	inactive: 0.671	1.13
c1ccc2c(c1)CCCC2C1=NCCN1 (centres undefined) [Tetrahydrozoline HCl]	1.15	inactive: 0.979	1.15
COC(=O)Nc1nc2cc([S+]([O-])c3ccccc3)ccc2[nH]1 (centres undefined) [Oxfendazole]	0.709	active: 0.313	0.465
O=P(O)(O)C(O)(Cn1ccnc1)P(=O)(O)O [Zoledronic Acid]	0.814	inactive: 0.621	2.05
CC1(C)S[C@@H]2[C@H](NC(=O)[C@H](N)c3ccccc3)C(=O)N2[C@H]1C(=O)O [Ampicillin]	1.53	inactive: 0.84	1.16
Nc1ncnc2c1ncn2[C@@H]1O[C@H](COP(=O)(O)OP(=O)(O)OP(=O)(O)O)[C@@H](O)[C@H]1O [Adenosine 5-triphosphate]	1.18	inactive: 0.99	1.09
COC(=O)C1=C(C#N)NC(C)=C(C(=O)OC(C)C)C1c1cccc([N+](=O)[O-])c1 (centres undefined) [Nilvadipine]	1.09	inactive: 0.605	0.034
C=C[C@]1(C)C[C@@H](OC(=O)CS[C@@H]2C[C@H]3CC[C@@H](C2)N3C)[C@]2(C)[C@H](C)CC[C@]3(CCC(=O)[C@H]32)[C@@H](C)[C@@H]1O [Retapamulin]	0.937	active: 0.451	1.11
N[C@@H](CS)C(=O)O	0.922	inactive: 1.4	1.16
COc1ccc(CCN(C)CCCC(C#N)(c2ccc(OC)c(OC)c2)C(C)C)cc1OC (centres undefined) [Verapamil HCl]		inactive: 0.971	0.703
C(=C\c1ccccc1)/CN1CCN(C(c2ccccc2)c2ccccc2)CC1 [Cinnarizine]	1.06	inactive: 0.973	0.939
CC(=O)[C@H]1CC[C@H]2[C@@H]3CCC4=CC(=O)CC[C@]4(C)[C@H]3CC[C@]12C [Progesterone]	1.04	inactive: 1.02	0.81
OCCN(CCO)c1nc(N2CCCCC2)c2nc(N(CCO)CCO)nc(N3CCCCC3)c2n1 [Dipyridamole]	1.06	inactive: 1.07	0.982
